Reference: PMC6919601, “Identification of Plasmodium dipeptidyl aminopeptidase allosteric inhibitors by high throughput screening” (PLoS ONE, 2019)
Out of some 110,000 compounds screened, about 230 (0.21%) showed an effect of 50% or more. The list shows a part of the results.

The compounds below were run against DPAP1 (Plasmodium falciparum, UniProt Q8IIJ9) (assay: primary screen, percent inhibition; read by cleavage of a fluorogenic dipeptide substrate; higher = more effect of the substance).
Design: species or system P. falciparum D10 trophozoite lysates; single well
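Further: 30 min substrate incubation versus DMSO and 10 µM JCP410 controls.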

Sequence of DPAP1 (Q8IIJ9 whole entry, looked up): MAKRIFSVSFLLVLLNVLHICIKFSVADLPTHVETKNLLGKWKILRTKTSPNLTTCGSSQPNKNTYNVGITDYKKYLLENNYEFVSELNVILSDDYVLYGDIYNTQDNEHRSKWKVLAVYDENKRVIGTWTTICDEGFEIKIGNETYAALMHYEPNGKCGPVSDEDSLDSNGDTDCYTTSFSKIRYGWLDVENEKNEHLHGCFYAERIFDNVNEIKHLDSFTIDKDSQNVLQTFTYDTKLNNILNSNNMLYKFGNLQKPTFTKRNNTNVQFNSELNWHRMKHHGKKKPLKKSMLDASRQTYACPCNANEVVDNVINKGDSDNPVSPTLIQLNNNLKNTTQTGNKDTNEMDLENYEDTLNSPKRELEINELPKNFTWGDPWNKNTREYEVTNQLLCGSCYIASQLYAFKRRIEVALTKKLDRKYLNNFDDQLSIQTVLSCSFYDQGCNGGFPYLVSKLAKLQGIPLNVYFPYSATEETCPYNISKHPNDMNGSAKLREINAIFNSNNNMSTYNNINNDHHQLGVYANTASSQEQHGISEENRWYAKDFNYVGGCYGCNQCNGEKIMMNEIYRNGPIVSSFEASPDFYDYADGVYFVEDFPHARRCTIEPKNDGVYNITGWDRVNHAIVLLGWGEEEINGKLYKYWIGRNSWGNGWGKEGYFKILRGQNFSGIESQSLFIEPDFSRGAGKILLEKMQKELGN

Structure (SMILES)	% Inhibition @ 10 uM [%]
CC1=C(C(=O)NC(C)c2ccc3c(c2)OCCO3)C2(CCCCC2)OC1=O (stereo not drawn)	1.55
O=C(Nc1sc2c(c1C(=O)O)CCCCC2)c1ccccc1	-0.949
Cc1ccc(NC(=O)Cn2c(-c3nonc3N)nc3ccccc32)cc1Br	-4.52
Cn1ncc2c(NCCN3CCOCC3)ncnc21	1.09
COc1ccc2c(C)nc(N=C(N)N)nc2c1	5.55
COc1cc(NC(=O)c2cc(OC)c(OC)c(OC)c2)ccc1NC(=O)c1cc2ccccc2o1	0.812
CC(=O)Nc1ccc(/C=C/C(=O)c2ccncc2)cc1	-4.3
O=C1N/C(=C/c2ccc(Cl)s2)C(=O)N1Cc1ccccc1	-4.6
Cc1cccn2c(=O)c3cc(C(=O)N4CCOCC4)c(=N)n(Cc4cccnc4)c3nc12	0.279
O=c1c(NCc2ccccc2)c(-c2ccccc2)c1=O	-4.99
CCCc1cc(C(=O)NC(C)c2ccccc2)no1 (stereo not drawn)	-0.591
O=C(c1ccc2nc(N3CCCCC3)sc2c1)N1CCN(c2ncccn2)CC1	2.65
Cc1ccc(CN(C(=O)c2ccc(Cl)cc2)C2CCS(=O)(=O)C2)o1 (stereo not drawn)	2.19
Cc1ccc(C(CC(=O)O)Nc2nc(NCCO)nc(N3CCOCC3)n2)cc1 (stereo not drawn)	2.7
CSc1nc2c(c(=O)n1-c1ccc(C)cc1)C1(CCCC1)Cc1ccccc1-2	-1.59
CCS(=O)(=O)c1nc(S(=O)(=O)c2ccc(Cl)cc2)c(N2CCC3(CC2)OCCO3)s1	-0.522
CCC(C)Oc1ccc(/C=C2\SC(=O)N(CC(=O)N3CCOCC3)C2=O)cc1 (stereo not drawn)	4.61
COc1ccccc1-c1c(C)nn2c(SCC(=O)NC(C)c3ccccc3)cc(C)nc12 (stereo not drawn)	0.0198
CC1CN(C(=O)/C(=C/c2ccccc2)NC(=O)c2ccccc2)CC(C)O1 (stereo not drawn)	-2.64
Cc1ccnc(NS(=O)(=O)c2ccc(F)c(C)c2)c1	1.72
CCC1CCCCN1C(=O)Cn1c(SCc2ccc(OC)cc2)nc2ccncc21 (stereo not drawn)	-6.01
Cc1coc2c1c(C)cc1oc(=O)c(CC(=O)N3CCOCC3)c(C)c12	0.685
COc1cc(CN2CCN(c3ccccc3Cl)CC2)cc2c1OCO2	2.26
O=C(NCc1ccc(Cl)cc1)C(=O)NCc1ccco1	-3.4
Oc1cc(-c2ccccc2)nc2nc(-c3ccco3)nn12	2.62
COC(=O)c1c(-c2ccc(C(C)(C)C)cc2)csc1NC(=O)CCC(=O)O	42.4

Structure (SMILES)	% Inhibition @ 10 uM [%]
CCOc1nc2c(c(=O)n(C)c(=O)n2C)n1Cc1ccc(Cl)cc1Cl	0.279
CCOC(=O)c1c(C)[nH]c(C)c1S(=O)(=O)NCC(=O)N1CCN(c2ncccn2)CC1	-4.33
COc1cc(OC)cc(C(=O)Nc2cccc(-c3nc4ncccc4o3)c2)c1	6.69
NCCC1CCCCC(=O)N1 (stereo not drawn)	-2.7
Nc1nc2n(c1C(=O)c1ccccc1)CCC2	-1.05
CC(=O)N(C)c1ccc(NC(=O)COc2ccccc2Cl)cc1	-5.83
Cc1ccc(O)c(CCc2ccc(O)cc2)n1	3.78
COCCNC(=O)C1CCN(c2nc3c(C)cc(C)cc3s2)CC1	3.4
CCOc1ccc(NC(=O)CN(c2cc(C)ccc2OC)S(C)(=O)=O)cc1	7.38
COc1cccc(C2CC(=O)NC3=C2C(=O)CC(c2ccccc2Cl)C3)c1OC (stereo not drawn)	-2.87
O=C(CSc1nc2ccsc2c(=O)n1Cc1ccc2c(c1)OCO2)NCCC1=CCCCC1	29.1
O=C1c2[nH]nc(-c3ccccc3O)c2C(c2ccc(OCc3ccccc3)cc2)N1CCO (stereo not drawn)	-1.35
COc1ccc(Br)cc1-c1noc(C(F)(F)F)n1	2.18
O=C1NC(=S)NC(=O)C1C1CCCCC1	-8.76
CN(CCc1ccccn1)Cc1ccc(Cl)c(Cl)c1	0.827
CC(C(=O)NCC1(c2ccccc2)CCCC1)N1CCCCC1 (stereo not drawn)	0.587
CCCCCn1c(C(C)O)nc2ccccc21 (stereo not drawn)	-4.76
O=C(COc1ccc(Br)cc1)Nc1ccc(S(=O)(=O)N2CCCCCC2)cc1	0.472
Cc1ccc(-n2ncc3c(NCc4cccnc4)ncnc32)cc1Cl	-1.62
CCOCCCNC(=O)c1cn(C)c(=O)c2c1c1ccccc1n2C	12.8
OCCn1c(-c2cccs2)cn2c3ccccc3nc12	-1.96
OC1CCCN(Cc2ccc(F)c(F)c2)C1 (stereo not drawn)	5.42
COc1ccc(C2=NN(CC(=O)NCCN(Cc3ccccc3)C(C)C)C(=O)CC2)cc1	-3.58
COc1cccc(C(=O)Nc2ccc(N3CCN(Cc4ccccc4)CC3)cc2)c1	-1.65
OC1CCN(Cc2cccnc2)CC1	-1.07
CCN(CC)S(=O)(=O)c1ccc(Cl)c(C(N)=O)c1	6.5

Structure (SMILES)	% Inhibition @ 10 uM [%]
CC1CCCC(NC(=O)c2ccccc2C(=O)O)C1C (stereo not drawn)	10.2
CCOC(=O)/C(C#N)=C(\C)CC(C)C	1.33
COc1ccc(CNC(=O)CNS(=O)(=O)c2cccs2)cc1	-0.503
Cc1ccc(/C=C(\NC(=O)c2ccccc2)C(=O)NCC2CCCCC2)o1	-4.48
CC(=O)Nc1ccc(NC(=O)c2ccccc2C)cc1	1.62
CCOc1ccc2nc(NC(=O)c3ccc(Br)o3)sc2c1	2.82
CCc1ccc(NC2=C(Cl)C(=O)N(c3ccc(OC)cc3)C2=O)cc1	-6.59
O=S(=O)(Nc1ccccn1)c1c(Cl)cccc1Cl	0.968
O=S(=O)(c1ccc(Cl)c(C(F)(F)F)c1)N1CCN(Cc2ccccc2)CC1	7.37
C=CCOC(=O)C1=C(C)N=C2CCCC(O)=C2C1c1cccc(F)c1 (stereo not drawn)	3.82
C=CCSc1nc2c(c(=O)[nH]c(=O)n2C)n1Cc1cccc(Br)c1	2.51
C=CCn1c(COc2cccc3cccnc23)nnc1SCC(=O)O	1.15
Cc1cccc(NC(=O)c2cncc(Br)c2)c1C	-0.884
COc1cc(S(=O)(=O)Nc2cccc(C)c2)ccc1N/C=C1\C(=O)N(C)C(=O)C(C#N)=C1C	-4.4
Cc1cccnc1NC(=O)c1c(F)c(F)c(F)c(C(=O)Nc2ncccc2C)c1F	-3.5
CCOCC(=O)Nc1ccc(N(CC)CC)cc1	-4.15
COc1ccc(C(=O)CSc2ccccn2)cc1	1.13
CN1C(=O)c2ccccc2C(C(=O)NCCN2CCc3ccccc3C2)C1c1cccs1 (stereo not drawn)	-0.0401
Cc1ccccc1OCC(=O)Nc1ccc(S(=O)(=O)N2CCOCC2)cc1	-1.51
Cc1ccc(CCN2CC(C(=O)NCCCN3CCCC3=O)CC2=O)cc1 (stereo not drawn)	1.62
CCC(C(=O)NCCCN(CC)CC)n1nc(C)n2c(cc3occc32)c1=O (stereo not drawn)	-5.63
O=C(CCS(=O)(=O)c1cccc2nonc12)NCCc1ccccc1Cl	5.85
CN1C(=O)S/C(=C/c2cccn2-c2cccc(C(=O)O)c2)C1=O	4.06
Cc1ccc2c(CNCc3ccccc3Cl)c(C(=O)O)[nH]c2c1	-7.56
O=C(Nc1c(C(=O)N2CCN(c3ccccn3)CC2)cnn1-c1ccccc1Cl)c1ccco1	5.15
COc1cc(OC)c(C2C=C(c3ccc(Cl)cc3)Nc3ncnn32)cc1OC (stereo not drawn)	3.32

Structure (SMILES)	% Inhibition @ 10 uM [%]
Cc1cccc(C(=O)Nc2cc(Cl)c(O)c(Cl)c2)c1	3.53
O=C(CSc1nnnn1-c1ccccc1)NCc1ccccc1	-0.467
Cc1cccc(NC(=O)CCc2c(C)nc3ncnn3c2C)n1	-0.465
c1ccc(C(CN2CCC(N3CCCCC3)CC2)c2ccccc2)cc1	-2.02
Cc1ccc(-c2ccc(=O)n(CCC(=O)NCCc3ccc(Cl)cc3)n2)cc1	3.24
COc1cc2c(cc1OC)C(c1ccc(C)cc1)NC(=O)C2 (stereo not drawn)	-1.37
CNC(=O)c1cc2c(=O)n3cc(C)ccc3nc2n(CCCOC)c1=N	-1.47
COc1ccc(C2CC(=O)C(/C=N/c3cc(Cl)ccc3O)=C(O)C2)cc1 (stereo not drawn)	-4.41
Clc1ccc(OCc2nc3c4cnn(Cc5ccccc5)c4ncn3n2)cc1	-3.96
COc1cc(Br)c(C(C)NC(=O)c2ccc(C)cc2)cc1OC (stereo not drawn)	0.13
NC(=O)C1CCN(C(=O)COCc2cc(-c3ccc4c(c3)OCO4)on2)CC1	-4.1
COc1cccc(C2NC(=O)NC(C)=C2C(=O)Nc2ccccc2Cl)c1 (stereo not drawn)	3.44
CCOC(=O)c1ccc(-c2ccc(/C=C(\C#N)c3nc4ccccc4[nH]3)o2)cc1	5.75
O=C(Nc1cccc(F)c1)C1CCN(S(=O)(=O)c2cc(Cl)ccc2Cl)CC1	4.11
O=C1c2ccccc2C(=O)N1CCc1nc(CO)n[nH]1	14.4
Cc1cc(CO)c(C(=O)NCc2ccccc2)c(S)n1	-1.85
N#Cc1c(C(F)(F)F)cc(-c2ccncc2)nc1SCC(=O)Nc1nccs1	3.99
CCOC(=O)c1c(C)[nH]c(C)c1S(=O)(=O)NCCCc1ccco1	-1.23
O=S(=O)(NC1CCCCC1N1CCNCC1)c1ccc(Cl)cc1 (stereo not drawn)	1
O=C(c1cccs1)N1N=C(c2ccc(Br)cc2)CC1c1ccco1 (stereo not drawn)	-2.73
COc1ccc(-c2nc(SCC(=O)O)nc(O)c2C#N)cc1	-3.9
COc1ccc(OC)c(NC(=O)C(C)Oc2ccccc2C)c1 (stereo not drawn)	-2.19
N#CC1=C(N)Oc2c(oc(CO)cc2=O)C1c1c[nH]nc1-c1ccc(F)cc1 (stereo not drawn)	0.0719
Oc1ccc(Nc2nc(Nc3ccc(O)cc3)nc(N3CCOCC3)n2)cc1	-4.11
